# Reference: the supplement of paper PMC8728848
# Some of the results follow.
# Experiments:
# Assay in all cases: glycan array binding signal (z-score within array); higher = stronger binding
# Settings in all cases: glycan notation: IUPAC condensed, linker removed
# [1] = biological target: Fuc(a1-2)Gal
# Summary of the method: (§1)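 Negative Z-scores can be read as non-binding. The Z-score is calculated within each array and then averaged across arrays of one protein sequence at different concentrations or buffers and across linkers. Arrays, 3228 in all, were curated from the Consortium for Functional Glycomics database and kept only where the protein sequence was available.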
# [2] = biological target: Fuc(a1-2)Gal(b1-3)GalNAc
# Summary of the method: as §1
# [3] = biological target: Fuc(a1-2)Gal(b1-3)GalNAc(a1-3)[Fuc(a1-2)]Gal(b1-4)Glc
# Summary of the method: as §1
# [4] = biological target: Fuc(a1-2)Gal(b1-3)GalNAc(a1-3)[Fuc(a1-2)]Gal(b1-4)GlcNAc
# Summary of the method: as §1
# [5] = biological target: Fuc(a1-2)Gal(b1-3)GalNAc(b1-3)Gal
# Summary of the method: as §1
# [6] = biological target: Fuc(a1-2)Gal(b1-3)GalNAc(b1-3)Gal(a1-4)Gal(b1-4)Glc
# Summary of the method: as §1
# [7] = biological target: Fuc(a1-2)Gal(b1-3)GalNAc(b1-4)[Neu5Ac(a2-3)]Gal(b1-4)Glc
# Summary of the method: as §1
# [8] = biological target: Fuc(a1-2)Gal(b1-3)GlcNAc
# Summary of the method: as §1
# [9] = biological target: Fuc(a1-2)Gal(b1-3)GlcNAc(b1-2)Man(a1-3)[Fuc(a1-2)Gal(b1-3)GlcNAc(b1-2)Man(a1-6)]Man(b1-4)GlcNAc(b1-4)GlcNAc
# Summary of the method: as §1
# [10] = biological target: Fuc(a1-2)Gal(b1-3)GlcNAc(b1-2)Man(a1-3)[Fuc(a1-2)Gal(b1-3)GlcNAc(b1-2)Man(a1-6)]Man(b1-4)GlcNAc(b1-4)[Fuc(a1-6)]GlcNAc
# Summary of the method: as §1
# [11] = biological target: Fuc(a1-2)Gal(b1-3)GlcNAc(b1-3)Gal(b1-4)Glc
# Summary of the method: as §1
# [12] = biological target: Fuc(a1-2)Gal(b1-3)GlcNAc(b1-3)GalNAc
# Summary of the method: as §1
# [13] = biological target: Fuc(a1-2)Gal(b1-3)GlcNAc(b1-3)[Fuc(a1-2)Gal(b1-3)GlcNAc(b1-6)]GalNAc
# Summary of the method: as §1
# [14] = biological target: Fuc(a1-2)Gal(b1-3)GlcNAc(b1-3)[Gal(b1-4)GlcNAc(b1-6)]Gal(b1-4)Glc
# Summary of the method: as §1
# [15] = biological target: Fuc(a1-2)Gal(b1-3)GlcNAc(b1-3)[Neu5Ac(a2-6)Gal(b1-4)GlcNAc(b1-6)]Gal(b1-4)Glc
# Summary of the method: as §1
# [16] = biological target: Fuc(a1-2)Gal(b1-3)GlcNAc6S
# Summary of the method: as §1
# [17] = biological target: Fuc(a1-2)Gal(b1-3)[Fuc(a1-4)]GlcNAc
# Summary of the method: as §1
# [18] = biological target: Fuc(a1-2)Gal(b1-3)[Fuc(a1-4)]GlcNAc(b1-2)Man(a1-3)[Fuc(a1-2)Gal(b1-3)[Fuc(a1-4)]GlcNAc(b1-2)Man(a1-3)]Man(b1-4)GlcNAc(b1-4)GlcNAc
# Summary of the method: as §1
# [19] = biological target: Fuc(a1-2)Gal(b1-3)[Fuc(a1-4)]GlcNAc(b1-2)Man(a1-3)[Fuc(a1-2)Gal(b1-3)[Fuc(a1-4)]GlcNAc(b1-2)Man(a1-6)]Man(b1-4)GlcNAc(b1-4)[Fuc(a1-6)]GlcNAc(b1-4)[Fuc(a1-6)]GlcNAc
# Summary of the method: as §1
# [20] = biological target: Fuc(a1-2)Gal(b1-3)[Fuc(a1-4)]GlcNAc(b1-3)[Fuc(a1-3)[Gal(b1-4)]GlcNAc(b1-6)]Gal(b1-4)Glc
# Summary of the method: as §1
# [21] = biological target: Fuc(a1-2)Gal(b1-3)[Fuc(a1-4)]GlcNAc(b1-3)[Gal(b1-4)GlcNAc(b1-6)]Gal(b1-4)Glc
# Summary of the method: as §1
# [22] = biological target: Fuc(a1-2)Gal(b1-4)Glc
# Summary of the method: as §1
# [23] = biological target: Fuc(a1-2)Gal(b1-4)Glc6S
# Summary of the method: as §1
# [24] = biological target: Fuc(a1-2)Gal(b1-4)GlcNAc
# Summary of the method: as §1
# [25] = biological target: Fuc(a1-2)Gal(b1-4)GlcNAc(b1-2)Man
# Summary of the method: as §1
# [26] = biological target: Fuc(a1-2)Gal(b1-4)GlcNAc(b1-2)Man(a1-3)[Fuc(a1-2)Gal(b1-4)GlcNAc(b1-2)Man(a1-6)]Man(b1-4)GlcNAc(b1-4)GlcNAc
# Summary of the method: as §1
# [27] = biological target: Fuc(a1-2)Gal(b1-4)GlcNAc(b1-2)Man(a1-3)[Fuc(a1-2)Gal(b1-4)GlcNAc(b1-2)Man(a1-6)]Man(b1-4)GlcNAc(b1-4)[Fuc(a1-6)]GlcNAc
# Summary of the method: as §1
# [28] = biological target: Fuc(a1-2)Gal(b1-4)GlcNAc(b1-2)[Fuc(a1-2)Gal(b1-4)GlcNAc(b1-4)]Man(a1-3)[Fuc(a1-2)Gal(b1-4)GlcNAc(b1-2)Man(a1-6)]Man(b1-4)GlcNAc(b1-4)GlcNAc
# Summary of the method: as §1
# [29] = biological target: Fuc(a1-2)Gal(b1-4)GlcNAc(b1-3)Gal(b1-4)GlcNAc
# Summary of the method: as §1
# [30] = biological target: Fuc(a1-2)Gal(b1-4)GlcNAc(b1-3)Gal(b1-4)GlcNAc(b1-2)Man(a1-3)[Fuc(a1-2)Gal(b1-4)GlcNAc(b1-3)Gal(b1-4)GlcNAc(b1-2)Man(a1-6)]Man(b1-4)GlcNAc(b1-4)GlcNAc
# Summary of the method: as §1
binder,measurement,setting,value
PX9961J-bvu-499-24-499 (Bacteroides vulgatus) (protein) LNTDPSTAVPSDDAIKNIDDAQVALNGIYRLASAHSYYGDNYLYYADCRGEDVQARINKGAGRRVSPYYFFDVTADDNFNITLVWNQPYKVIHQANSLIEKLDAGNAGNARPEEVARIKSEALAMRGLALFDLTRLFGMPYTLDNGASLGVPIEIQTTLEDHAPERNTVAQCYEQVLKDLNDALGGLTKEKHDAYMNYWSVKALLSRVYLYMNDNENALKCAEEVINDNGGIYRLFTHDEYPSVWGKDFNSESLFEFYFTMSEPSGGSGGEGAPMVYADNVKDWNNLILTKAYLDLLNEDPEDVRHVFPHLPENAVADTLPVAAKGQPKYLIKYPGKSGSVTDAVSTVNPQDNDLCILRLSEVYLNAAEAAFKIGNTEKALTYLNAIVTRANPAKSVTSADLSLERILKERRKELVGEGHAFFDYMRNGKSVDRSGGWHLTMPEDARVIAPSDPRVALPIPQTEIDANPNIVQNPR,glycan array binding signal (z-score),[1],0.069
same,glycan array binding signal (z-score),[2],-0.212
same,glycan array binding signal (z-score),[3],-0.253
same,glycan array binding signal (z-score),[4],0.315
same,glycan array binding signal (z-score),[5],-0.622
same,glycan array binding signal (z-score),[6],-0.372
same,glycan array binding signal (z-score),[7],0.001
same,glycan array binding signal (z-score),[8],1
same,glycan array binding signal (z-score),[9],0.386
same,glycan array binding signal (z-score),[10],0.145
same,glycan array binding signal (z-score),[11],-0.355
same,glycan array binding signal (z-score),[12],-0.096
same,glycan array binding signal (z-score),[13],1.22
same,glycan array binding signal (z-score),[14],-0.465
same,glycan array binding signal (z-score),[15],-0.281
same,glycan array binding signal (z-score),[16],-0.102
same,glycan array binding signal (z-score),[17],-0.771
same,glycan array binding signal (z-score),[18],-0.116
same,glycan array binding signal (z-score),[19],0.172
same,glycan array binding signal (z-score),[20],-0.715
same,glycan array binding signal (z-score),[21],0.144
same,glycan array binding signal (z-score),[22],0.008
same,glycan array binding signal (z-score),[23],-0.261
same,glycan array binding signal (z-score),[24],-0.538
same,glycan array binding signal (z-score),[25],-0.398
same,glycan array binding signal (z-score),[26],0.383
same,glycan array binding signal (z-score),[27],-0.244
same,glycan array binding signal (z-score),[28],-0.696
same,glycan array binding signal (z-score),[29],-0.607
same,glycan array binding signal (z-score),[30],0.242
